# Test results from PubChem BioAssay AID588855 (National Center for Advancing Translational Sciences (NCATS), 2011).
# The whole screen tested about 410,000 compounds, of which about 5,000 (1.2%) were called active. Inconclusive means that the source gave no clear call. Such entries were picked first, then a sample of the others. Calls come from the whole dose curve; as a rule, active = well fitted inhibition curve with a large enough effect; inconclusive = small, poorly fitted or top-dose-only effect; inactive = no such curve, though single readings can be large or run the other way. Where the call is inconclusive, the potency comes from a doubtful curve fit.
# Assay: qHTS for Inhibitors of TGF-b; note: nearly all actives have a fitted effect of over 65% in size
# Details: HepG2 CAGA-GFP TGF-b/SMAD3 reporter, GFP fluorescence, 18 h, TGF-beta stimulated, 500 pg/mL final; series mostly up to 46.1 µM; activity, negative = inhibition: at the top concentration
# In short: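 Smad-responsive CAGA-GFP expression was quantified in HEPG2 cells exposed to compounds and 500 pg/mL final TGF-beta for 18 h at 37 degrees C; unstimulated wells defined full inhibition.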
# % is set by controls: 0 for no effect and ±100 for the full control effect; potency is the fitted concentration of half-maximal effect; tags give direction and shape of the fitted curve.
SMILES,Potency,"activity, negative = inhibition"
COc1ccc(C(CNC(=O)COc2ccccc2)N2CCCCC2)cc1 (centres undefined),"inconclusive: 25.1 µM [inhibitor, partial curve, poor fit]",–
CNS(=O)(=O)c1cn(CC(=O)N2CCN(c3cc(C)ccc3C)CC2)cc1S(=O)(=O)NC,–,inactive: 0%
COc1ccc(C2CC(=O)Nc3ccccc3S2(=O)=O)cc1OC (centres undefined),"inconclusive: 5.62 µM [inhibitor, single point]",–
Nn1cnc2c(c1=O)C1(CCCCC1)Cc1ccccc1-2,active: 8.91 µM,–
Cc1cccc(NC(=O)CSc2nccn2-c2cccc(Cl)c2)c1C,"inconclusive: 17.8 µM [inhibitor, partial curve, poor fit]",–
CN(C(=O)c1ccc(NC(=O)Cc2cccc(NC(=O)C3CCN(C(=O)C4CCCC4)CC3)c2)cc1)C1CCCC1,"inconclusive: 2.82 µM [inhibitor, partial curve, poor fit]",–
O=C1CSC(=S)N1N=C1CCCCCC1,–,inactive: -3.72%
O=C(O)c1ccc(NC(=S)NC(=O)c2ccc(-c3ccccc3)cc2)cc1,–,inactive: 8.99%
CC1CC(C)CN(C(=O)COC(=O)c2ccc3ccccc3n2)C1 (centres undefined),–,inactive: -4.1%
Cc1ccnc2c1ccc1ccccc12,inactive,–
COc1cc(C(=O)N2CCC(N3CCCCCC3)CC2)cc(OC)c1OC,"inconclusive: 35.5 µM [inhibitor, single point]",–
CC(=O)NC(c1cccc(F)c1)c1nc(-c2csc3ccccc23)cs1 (centres undefined),–,inactive: -22%
CCCC1=NN(c2ccc([N+](=O)[O-])cc2)C(=O)/C1=C\N(C)C,"inconclusive: 15.8 µM [inhibitor, single point]",–
CCOC(=O)C1(CCc2ccccc2)CCN(C(=O)CN2CCOC2=O)CC1,–,inactive: 1.6%
C/C(=N\NC(=O)c1cccc(S(=O)(=O)N2CCCCC2)c1)c1ccc(C)o1,"inconclusive: 0.708 µM [inhibitor, full curve, poor fit]",–
OCC1(CCOc2ccccc2)CCN(Cc2cn[nH]c2-c2ccc(F)cc2)CC1,"inconclusive: 35.5 µM [inhibitor, single point]",–
N#Cc1ccc(Nc2nc(-c3ccc(O)cc3O)cs2)cc1C(F)(F)F,"inconclusive: 20 µM [inhibitor, single point]",–
Fc1ccc(Cn2c(-c3cccc(Br)c3)nc3ccccc32)cc1,"inconclusive: 15.8 µM [inhibitor, single point]",–
Cc1cccc(N2CCN(C(=O)c3ccc(NC(=O)CC4SC(N5CCCC5)=NC4=O)cc3)CC2)c1C (centres undefined),"inconclusive: 20 µM [inhibitor, single point]",–
O=C(Nc1nnc(-c2ccco2)o1)c1ccc(N2C(=O)CCC2=O)cc1,"inconclusive: 35.5 µM [inhibitor, single point]",–
CCN(CC)CCOC(=O)c1ccc(NC(=O)CCCN2C(=O)S/C(=C/c3ccc(OC)cc3)C2=S)cc1,–,inactive: -6.92%
CCOC(=O)C1=C(CN2CCN(c3cc(C)ccc3C)CC2)NC(=O)NC1c1ccc(Cl)cc1 (centres undefined),"inconclusive: 31.6 µM [inhibitor, partial curve, poor fit]",–
COc1cccc(CN(C)CC2CCCN(CCc3ccccc3C)C2)c1 (centres undefined),"inconclusive: 11.2 µM [inhibitor, partial curve, poor fit]",–

SMILES,Potency,"activity, negative = inhibition"
COc1ccc2c(c1OC)C(=O)N1N=C(c3ccccc3)CC21 (centres undefined),"inconclusive: 6.31 µM [inhibitor, single point]",–
COc1ccc([C@H]2CC(=O)C=C(c3ccccc3C(F)(F)F)C2)cc1,"inconclusive: 0.158 µM [inhibitor, full curve, poor fit]",–
CCOC1=C2[C@@H](CN(S(=O)(=O)c3ccc(C)cc3)[C@H]2c2ccccc2Cl)[C@H]2C(=O)N(Cc3ccccc3)C(=O)[C@H]2C1,"inconclusive: 10 µM [inhibitor, partial curve, poor fit]",–
CCOc1ccccc1C1C2=C(COC2=O)Nc2cc3c(cc21)OCO3 (centres undefined),active: 7.08 µM,–
CC(C)NC(=O)C(C)n1cccc1C(=O)c1ccccc1 (centres undefined),"inconclusive: 3.16 µM [inhibitor, partial curve, poor fit]",–
CCCCNCCOCCSc1ccc(Cl)cc1,"inconclusive: 35.5 µM [inhibitor, single point]",–
CCc1ccc2nc(NC(=O)C3CCN(c4ncnc5sc(C)c(C)c45)CC3)sc2c1,"inconclusive: 22.4 µM [inhibitor, single point]",–
CCC(C)N(C(=O)Cn1c(=O)cnc2ccccc21)C1CCS(=O)(=O)C1 (centres undefined),–,inactive: -2.45%
Cc1nn(Cc2ccc(F)cc2)c(C)c1NC(=O)c1cc(-c2ccc3c(c2)OCO3)on1,–,inactive: 17.6%
O=S(=O)(Nc1ccc(-c2ccc(N3CCCC3)nn2)cc1)c1cccc(C(F)(F)F)c1,"inconclusive: 22.4 µM [inhibitor, partial curve, poor fit]",–
COc1ccc(-n2cc(C(=O)c3ccccc3O)cn2)cc1,"inconclusive: 8.91 µM [inhibitor, partial curve]",–
CCOC(=O)N1CCC(NC(=O)CN2C(=O)C(CC)Oc3ccc(C)cc32)CC1 (centres undefined),–,inactive: -0.126%
O=C(c1cccnc1)N1CCN(C/C=C/c2ccccc2)CC1,–,inactive: -1.22%
Cc1c(-c2ccccc2)c(=O)oc2cc(O)ccc12,–,inactive: -22.9%
O=C(Nc1ccc(F)c(Cl)c1)c1ccc2c(=O)n3c(nc2c1)CCCCC3,–,inactive: -19.1%
CCOC(=O)c1c(NC(=O)/C=C/C(=O)O)sc(C)c1-c1ccc(Cl)cc1,"inconclusive: 35.5 µM [inhibitor, single point]",–
C=CCNC(=S)N/N=C(\C)c1ccccn1,active: 2.82 µM,–
Cc1cccc(C)c1OC(=O)CSc1nnc(-c2cccs2)o1,"inconclusive: 2.82 µM [inhibitor, partial curve, poor fit]",–
CCCCSc1nc2sc3c(c2c(=O)n1-c1ccc(C)cc1)CCN(C)C3,"inconclusive: 35.5 µM [inhibitor, single point]",–
CCn1nc(-c2ccc(C)cc2)nc2c(=O)n(C)c(=O)nc1-2,active: 0.501 µM,–
O=C(Nc1ccc(O)cc1)C1CC=CCC1 (centres undefined),–,inactive: -1.41%
COC(=O)CN1C(=O)C(O)(CC(=O)c2cccc(Br)c2)c2ccccc21 (centres undefined),–,inactive: -13.1%
Cc1ccccc1N1CCN(c2ncnc3c2cnn3Cc2ccc(Cl)cc2)CC1,"inconclusive: 22.4 µM [inhibitor, single point]",–

SMILES,Potency,"activity, negative = inhibition"
CS(=O)(=O)Cc1ccc(C(=O)Nc2cccc(-c3nc4ccccc4[nH]3)c2)cc1,–,inactive: -2.12%
CCCCN(c1ccccc1)S(=O)(=O)c1ccc2c(c1)CC(C)N2C(=O)C1CC1 (centres undefined),"inconclusive: 25.1 µM [inhibitor, single point]",–
CC(NC(=O)c1ccc(F)cc1)c1nc2ccccc2n1Cc1ccccc1F (centres undefined),–,inactive: -9.24%
Cc1ccc(Nc2nnc(SCc3nc4ccccc4c(=O)[nH]3)s2)cc1,"inconclusive: 6.31 µM [inhibitor, single point]",–
Cc1ccc(NC(=S)Nc2ccc(C(C)C)cc2)cc1S(=O)(=O)N1CCCCCC1,"inconclusive: 22.4 µM [inhibitor, single point]",–
NC(=S)N/N=C/c1ccc(-c2ccc([N+](=O)[O-])cc2)o1,"inconclusive: 35.5 µM [inhibitor, single point]",–
CC12C=CC(=O)C=C1C(F)CC1C3CCC(O)(C(=O)CO)C3(C)CC(O)C12F (centres undefined),"inconclusive: 0.316 µM [inhibitor, partial curve, poor fit]",–
COc1ccc(Cl)cc1NC(=O)CSc1nc(-c2ccco2)cc(C(F)(F)F)n1,"inconclusive: 3.98 µM [inhibitor, partial curve, poor fit]",–
Cc1nn(Cc2ccc(C(=O)Nc3nccs3)cc2)c(C)c1Cl,"inconclusive: 14.1 µM [inhibitor, single point]",–
NC(=O)c1nccc2ccccc12,"inconclusive: 11.2 µM [inhibitor, single point]",–
Nn1cnnc1N/N=C/c1ccccc1C(F)(F)F,"inconclusive: 35.5 µM [inhibitor, single point]",–
Cc1cc(=O)oc2cc(OC(C)C(=O)N3CCCc4ccccc43)ccc12 (centres undefined),"inconclusive: 17.8 µM [inhibitor, partial curve, poor fit]",–
CCOC(=O)c1sc(NC(=O)CSc2n[nH]c(-c3ccccc3)n2)c(C#N)c1C,"inconclusive: 8.91 µM [inhibitor, partial curve, poor fit]",–
Oc1cccc2ccc(/C=C/c3c(F)cccc3Cl)nc12,"inconclusive: 10 µM [inhibitor, partial curve, poor fit]",–
Cc1ccc2c(c1)nnn2C1CCN(S(=O)(=O)c2cccc(S(=O)(=O)N(C)C)c2)CC1,–,inactive: 10.7%
CC(=O)N1CCCc2cc(S(=O)(=O)N(C)CC(=O)Nc3cccc(C)c3C)ccc21,–,inactive: -0.987%
CCOc1ccc(CCNC(=O)c2cn(CC)c3ccc(S(=O)(=O)N4CCCCCC4)cc3c2=O)cc1OCC,–,inactive: -11.6%
Cc1ccc(C(C)NC(=O)c2cc(C)oc2C)cc1 (centres undefined),"inconclusive: 7.08 µM [inhibitor, full curve, poor fit]",–
CCCCCCC=C1CCC(CN2CCCC2)C1=O (centres undefined),"inconclusive: 20 µM [inhibitor, single point]",–
O=C(O)COc1ccccc1/C=N/NC(=O)Cc1csc(Nc2cccc(C(F)(F)F)c2)n1,–,inactive: 3.53%
O=C(Nc1ccccc1)Nc1cc(Cl)cc(Cl)c1,active: 15.8 µM,–
O=C(c1ccco1)N(CCC(c1ccccc1)c1ccco1)Cc1ccc(F)cc1 (centres undefined),"inconclusive: 17.8 µM [inhibitor, partial curve, poor fit]",–
COC1(OC)N=C(N)C2(C#N)C(c3ccc4c(c3)OCO4)C12C#N (centres undefined),–,inactive: 1.75%
